In the supplement of paper PMC4967469 one finds AUC and IC50 data, which are given here for 56 cell lines.

By IC50 is meant the dose at which the fit gives 50% viability; fits outside the tested doses are given as limits. AUC is the area under the same curve over the 256-fold range up to the top dose, as a fraction; it is 1 without any effect and falls as sensitivity rises. A top dose marked as inferred was derived from the fitted curves, not read from the paper.

Compound in this experiment: O=C1NC(=NCc2cccs2)S/C1=C\c1ccc2ncccc2c1 [RO-3306]
Description: Viability of human cancer cell lines after 72 h of drug (GDSC screen). The note with it: top dose 5 µM; top dose inferred. As for the experimental part: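 Human cancer cell lines in 384-well plates, medium with 10% serum, drug for 72 h over a 256-fold dose range (nine 2-fold or five 4-fold steps up to the top dose). Adherent lines were fixed and stained with the nucleic acid dye Syto60, suspension lines read with resazurin; signal relative to control wells, capped at 0 and 100%. One two-parameter sigmoid per drug and line, fitted in a mixed model over all curves with the slope shared within a line.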

For T-T (oesophagus, adherent), the AUC worked out at 0.978 and the concentration for half-maximal inhibition (IC50) (usually the concentration at which inhibition is half-maximal) was above 5 µM.

TC-71 (Ewing sarcoma, adherent): the AUC stood at 0.99 and the half-inhibitory concentration (IC50) was above 5 µM.

Take TC-YIK (cervix, suspension): the AUC stood at 0.988 and the IC50 was above 5 µM.

As to TCCSUP (bladder, adherent), the AUC is 0.983 and the half-inhibitory concentration (IC50) is above 5 µM.

For TE-1 (oesophagus, adherent), the AUC amounted to 0.909 and the IC50 is above 5 µM.

In the case of TE-4 (oesophagus, adherent), the AUC was 0.944 and the 50% inhibitory concentration (IC50) is above 5 µM.

With TE-5 (oesophagus, adherent), the AUC was 0.973 and the concentration for half-maximal inhibition (IC50) was above 5 µM.

Turning to TE-6 (oesophagus, adherent), the AUC was determined as 0.894 and the IC50 is above 5 µM.

With TE-8 (oesophagus, adherent), the AUC worked out at 0.957 and the IC50 was above 5 µM.

In the case of TE-9 (oesophagus, adherent), the AUC was 0.964 and the IC50 is above 5 µM.

Take TE-10 (oesophagus, adherent): the AUC stood at 0.986 and the half-inhibitory concentration (IC50) is above 5 µM.

Regarding TE-11 (oesophagus, adherent), the AUC is 0.947 and the IC50 is above 5 µM.

For the cell line TE-12 (oesophagus, suspension), the AUC came out at 0.979 and the 50% inhibitory concentration (IC50) was above 5 µM.

For the cell line TE-15 (oesophagus, suspension), the AUC was found to be 0.981 and the IC50 is above 5 µM.

As to TGBC1TKB (biliary tract, adherent), the AUC was 0.961 and the concentration for half-maximal inhibition (IC50) is above 5 µM.

On to TGBC11TKB (stomach, adherent), for which the AUC stood at 0.992 and the IC50 was above 5 µM.

Turning to TGW (neuroblastoma, adherent), the AUC worked out at 0.965 and the IC50 was above 5 µM.

Take “THP-1 (acute myeloid leukaemia, suspension)”: the AUC turned out to be 0.991 and the IC50 was above 5 µM.

Take TK10 (kidney, adherent): the AUC amounted to 0.97 and the IC50 is above 5 µM.

As for TK (B-cell lymphoma, suspension), the AUC was 0.977 and the IC50 was above 5 µM.

On to TMK-1 (stomach, adherent), for which the AUC was 0.972 and the IC50 is above 5 µM.

As for TOV-21G (ovary, adherent), the AUC came to 0.922 and the IC50 is above 5 µM.

Turning to TOV-112D (ovary, adherent), the AUC stood at 0.943 and the IC50 was above 5 µM.

On to TT2609-C02 (thyroid, adherent), for which the AUC came out at 0.95 and the half-inhibitory concentration (IC50) was above 5 µM.

Take TT (thyroid, adherent): the AUC was found to be 0.978 and the IC50 was above 5 µM.

Turning to TUR (B-cell lymphoma, suspension), the AUC worked out at 0.987 and the concentration for half-maximal inhibition (IC50) was above 5 µM.

In the case of TYK-nu (ovary, adherent), the AUC came to 0.962 and the IC50 is above 5 µM.

As for U031 (kidney, adherent), the AUC was 0.936 and the concentration for half-maximal inhibition (IC50) was above 5 µM.

Take U-87-MG (glioma, adherent): the AUC was found to be 0.981 and the concentration for half-maximal inhibition (IC50) was above 5 µM.

U-118-MG (glioma, adherent): the AUC turned out to be 0.984 and the half-inhibitory concentration (IC50) is above 5 µM.

Regarding U-266 (myeloma, semi-adherent), the AUC stood at 0.972 and the IC50 is above 5 µM.

On to U-698-M (B-cell leukaemia, suspension), for which the AUC was determined as 0.955 and the 50% inhibitory concentration (IC50) was above 5 µM.

Regarding UACC-62 (melanoma, adherent), the AUC stood at 0.955 and the IC50 is above 5 µM.

As for UACC-257 (melanoma, adherent), the AUC is 0.979 and the IC50 was above 5 µM.

On to UACC-893 (breast, adherent), for which the AUC was found to be 0.979 and the IC50 is above 5 µM.

Turning to UWB1.289 (ovary, adherent), the AUC amounted to 0.962 and the IC50 was above 5 µM.

VA-ES-BJ (soft tissue, adherent): the AUC amounted to 0.959 and the 50% inhibitory concentration (IC50) was above 5 µM.

Take VAL (B-cell lymphoma, suspension): the AUC was 0.979 and the half-inhibitory concentration (IC50) is above 5 µM.

As for VCaP (prostate, adherent), the AUC turned out to be 0.975 and the IC50 is above 5 µM.

For the cell line VM-CUB-1 (bladder, adherent), the AUC worked out at 0.916 and the 50% inhibitory concentration (IC50) was above 5 µM.

For “VMRC-LCD (lung adenocarcinoma, adherent)”, the AUC amounted to 0.949 and the IC50 is above 5 µM.

As for VMRC-RCZ (kidney, adherent), the AUC stood at 0.972 and the IC50 was above 5 µM.

For the cell line WIL2-NS (lymphoid neoplasm, suspension), the AUC worked out at 0.987 and the IC50 is above 5 µM.

WM35 (melanoma, adherent): the AUC was determined as 0.885 and the half-maximal inhibitory concentration (IC50) is above 5 µM.

With WM793B (melanoma, adherent), the AUC worked out at 0.979 and the IC50 is above 5 µM.

With WM1552C (melanoma, adherent), the AUC stood at 0.988 and the half-maximal inhibitory concentration (IC50) was above 5 µM.

With WM-115 (melanoma, adherent), the AUC is 0.957 and the IC50 was above 5 µM.

With WSU-DLCL2 (B-cell lymphoma, suspension), the AUC is 0.99 and the IC50 was above 5 µM.

WSU-NHL (lymphoid neoplasm, suspension): the AUC was 0.983 and the 50% inhibitory concentration (IC50) was above 5 µM.

Consider YAPC (pancreas, adherent), for which the AUC was determined as 0.982 and the concentration for half-maximal inhibition (IC50) is above 5 µM.

As for YH-13 (glioma, adherent), the AUC came out at 0.88 and the concentration for half-maximal inhibition (IC50) was above 5 µM.

In the case of YKG-1 (glioma, adherent), the AUC is 0.941 and the IC50 is above 5 µM.

As to YT (lymphoid neoplasm, suspension), the AUC is 0.974 and the IC50 was above 5 µM.

Regarding ZR-75-30 (breast, adherent), the AUC was 0.967 and the IC50 is above 5 µM.

Regarding huH-1 (liver, adherent), the AUC worked out at 0.951 and the IC50 is above 5 µM.

With no-11 (glioma, adherent), the AUC worked out at 0.982 and the IC50 was above 5 µM.
